Data taken from patent US11564922B2, “Methods of treating crohn's disease and ulcerative colitis” (AbbVie Inc., priority 2017, dated 2023).

Test system: subjects with moderately to severely active Crohn's Disease
Experiment: Study M14-430 Sub-study 1: Phase 3, 52-week randomized double-blind maintenance study of upadacitinib vs placebo (Cohort 1, ITT1)
Settings: for Resolution of EIMs, (%) Estimate: Week 52, subjects with EIMs at Baseline; for Resolution of EIMs, (%) Estimate / Discontinued Study Drug: Adverse event / Discontinued Study Drug: Lack of efficacy / Occurrence of CD-related hospitalization, (n/100 PYs) Estimate: ITT1; for Change from BL in FACIT-F, (LS Mean) Estimate / Change from BL in IBDQ, (LS Mean) Estimate / CR-100, (%) Estimate / Clinical remission per CDAI and endoscopic remission, (%) Estimate / Clinical remission per CDAI, (%) Estimate / Clinical remission per PROs and endoscopic remission, (%) Estimate / Clinical remission per PROs, (%) Estimate / Endoscopic remission, (%) Estimate / Endoscopic response, (%) Estimate / Steroid-free clinical remission per CDAI, among all subjects, (%) Estimate / Steroid-free clinical remission per PROs, among all subjects, (%) Estimate: Week 52, ITT1 Population; for Change from BL in FACIT-F, (LS Mean) Estimate / Change from BL in IBDQ, (LS Mean) Estimate: MMRM; for Maintenance of clinical remission per CDAI, (%) Estimate / Maintenance of clinical remission per PROs, (%) Estimate: Week 52 among subjects in clinical remission at Week 0, ITT1; for Completed Study Drug After Receiving OL Rescue, UPA 30 mg QD / Completed Study Drug Without Receiving OL Rescue, UPA 30 mg QD: Sub-study 1, ITT1; for Discontinued Study Drug: Adverse event / Discontinued Study Drug: Lack of efficacy: primary reason; for Occurrence of CD-related hospitalization, (n/100 PYs) Estimate: exposure-adjusted incidence rate during Sub-study 1, as-observed
[1] = UPA 15 mg (N = 169), after receiving OL rescue UPA 30 mg QD
[2] = UPA 15 mg (N = 169), without receiving OL rescue
[3] = UPA 30 mg (N = 168), without receiving OL rescue

CC[C@@H]1CN(C(=O)NCC(F)(F)F)C[C@@H]1c1cnc2cnc3[nH]ccc3n12 [UPA, upadacitinib]
Resolution of EIMs, (%) Estimate (UPA 15 mg (N = 61)): 24.6% | Change from BL in FACIT-F, (LS Mean) Estimate (UPA 15 mg (N = 78)): 14.3 | Change from BL in IBDQ, (LS Mean) Estimate (UPA 15 mg (N = 78)): 59.3 | Maintenance of clinical remission per CDAI, (%) Estimate (UPA 15 mg (N = 101)): 49.5% | Maintenance of clinical remission per PROs, (%) Estimate (UPA 15 mg (N = 105)): 50.5% | Completed Study Drug After Receiving OL Rescue, UPA 30 mg QD (UPA 15 mg (N = 169)): (21.9) % | Completed Study Drug Without Receiving OL Rescue, UPA 30 mg QD (UPA 15 mg (N = 169)): (52.1) % | CR-100, (%) Estimate (UPA 15 mg (N = 169)): 41.4% | Clinical remission per CDAI and endoscopic remission, (%) Estimate (UPA 15 mg (N = 169)): 14.8% | Clinical remission per CDAI, (%) Estimate (UPA 15 mg (N = 169)): 37.3% | Clinical remission per PROs and endoscopic remission, (%) Estimate (UPA 15 mg (N = 169)): 13.7% | Clinical remission per PROs, (%) Estimate (UPA 15 mg (N = 169)): 35.5% | Endoscopic remission, (%) Estimate (UPA 15 mg (N = 169)): 19.1% | Endoscopic response, (%) Estimate (UPA 15 mg (N = 169)): 27.6% | Steroid-free clinical remission per CDAI, among all subjects, (%) Estimate (UPA 15 mg (N = 169)): 36.7% | Steroid-free clinical remission per PROs, among all subjects, (%) Estimate (UPA 15 mg (N = 169)): 34.9% | Discontinued Study Drug: Adverse event [1]: (3.6) % | Discontinued Study Drug: Lack of efficacy [1]: (5.3) % | Occurrence of CD-related hospitalization, (n/100 PYs) Estimate (UPA 15 mg (N = 169)): 11.2 n/100 PYs | Discontinued Study Drug: Adverse event [2]: (5.9) % | Discontinued Study Drug: Lack of efficacy [2]: (3.0) % | Resolution of EIMs, (%) Estimate (UPA 30 mg (N = 73)): 35.6% | Maintenance of clinical remission per CDAI, (%) Estimate (UPA 30 mg (N = 92)): 65.2% | Change from BL in FACIT-F, (LS Mean) Estimate (UPA 30 mg (N = 94)): 16.1 | Change from BL in IBDQ, (LS Mean) Estimate (UPA 30 mg (N = 94)): 64.5 | Maintenance of clinical remission per PROs, (%) Estimate (UPA 30 mg (N = 105)): 60.0% | Completed Study Drug After Receiving OL Rescue, UPA 30 mg QD (UPA 30 mg (N = 168)): (17.3) % | Completed Study Drug Without Receiving OL Rescue, UPA 30 mg QD (UPA 30 mg (N = 168)): (62.5) % | CR-100, (%) Estimate (UPA 30 mg (N = 168)): 51.2% | Clinical remission per CDAI and endoscopic remission, (%) Estimate (UPA 30 mg (N = 168)): 23.2% | Clinical remission per CDAI, (%) Estimate (UPA 30 mg (N = 168)): 47.6% | Clinical remission per PROs and endoscopic remission, (%) Estimate (UPA 30 mg (N = 168)): 22.6% | Clinical remission per PROs, (%) Estimate (UPA 30 mg (N = 168)): 46.4% | Endoscopic remission, (%) Estimate (UPA 30 mg (N = 168)): 28.6% | Endoscopic response, (%) Estimate (UPA 30 mg (N = 168)): 40.1% | Steroid-free clinical remission per CDAI, among all subjects, (%) Estimate (UPA 30 mg (N = 168)): 46.4% | Steroid-free clinical remission per PROs, among all subjects, (%) Estimate (UPA 30 mg (N = 168)): 44.6% | Discontinued Study Drug: Lack of efficacy (UPA 30 mg (N = 168), after receiving OL rescue UPA 30 mg QD): (5.4) % | Occurrence of CD-related hospitalization, (n/100 PYs) Estimate (UPA 30 mg (N = 168)): 7.8 n/100 PYs | Discontinued Study Drug: Adverse event [3]: (6.0) % | Discontinued Study Drug: Lack of efficacy [3]: (0.6) %
